# About 25,000 (6.9%) of roughly 360,000 compounds were called active. The inconclusive results got no clear call from the source; some entries with a clear call stand among them for comparison. Calls follow the shape of the dose curve; as a rule, active = well fitted inhibition curve with a large enough effect; inconclusive = small, poorly fitted or top-dose-only effect; inactive = flat fitted curve, though single readings scatter. Potencies of inconclusive entries are doubtful fits and often do not repeat.
# Target: Luciferin 4-monooxygenase (Photinus pyralis) (UniProt P08659)
# Chain of UniProt P08659 (P08659 whole entry, looked up): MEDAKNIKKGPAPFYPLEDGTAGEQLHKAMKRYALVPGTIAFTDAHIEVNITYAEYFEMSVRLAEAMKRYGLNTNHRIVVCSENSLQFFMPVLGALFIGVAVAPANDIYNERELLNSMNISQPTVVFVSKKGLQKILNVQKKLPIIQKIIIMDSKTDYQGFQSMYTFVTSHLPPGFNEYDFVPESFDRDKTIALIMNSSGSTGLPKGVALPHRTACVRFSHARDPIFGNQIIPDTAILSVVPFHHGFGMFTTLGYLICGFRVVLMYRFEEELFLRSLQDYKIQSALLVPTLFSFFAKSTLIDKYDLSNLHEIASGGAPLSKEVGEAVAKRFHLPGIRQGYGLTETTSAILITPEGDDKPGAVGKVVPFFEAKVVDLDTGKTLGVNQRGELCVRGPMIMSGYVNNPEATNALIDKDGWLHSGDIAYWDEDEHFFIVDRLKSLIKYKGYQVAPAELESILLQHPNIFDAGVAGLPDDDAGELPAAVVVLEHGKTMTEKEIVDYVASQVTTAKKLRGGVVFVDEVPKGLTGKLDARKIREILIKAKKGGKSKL
# Test: qHTS profiling assay for firefly luciferase inhibitor/activator using purifed enzyme and Km concentrations of substrates (counterscreen for miR-21 project); also: nearly all actives have a fitted effect of over 55% in size;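 as to activity change, negative = inhibition: plate controls were vehicle for no effect and reference inhibitor for full effect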
# Conditions: purified FLuc, luminescence inhibition; series mostly up to 57.5 µM; activity change, negative = inhibition: at the top concentration
# Summary of the method: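 Purified P. pyralis luciferase, 10 nM final, with Km-level 10 uM D-luciferin and 10 uM ATP in 50 mM Tris acetate pH 7.5, 10 mM Mg acetate, 0.01% Tween-20, 0.05% BSA; 6-point qHTS titration about 60 µM downward; luminescence read.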
# Potency is read from the fitted curve at half-maximal effect; tags tell the direction and shape of the fitted curve.
SMILES,"activity change, negative = inhibition",Potency
O=C(NCC(c1ccc(Cl)cc1)N1CCOCC1)c1ccccc1F (stereo not given),inactive: -2.7%,
C=CCN1C(=O)/C(=C/c2ccc(-c3ccc(F)cc3)o2)SC1=S,,"inconclusive: 19 µM [inhibitor, partial curve, poor fit]"
Cc1oc2cc3oc(=O)ccc3cc2c1C,,"inconclusive: 19 µM [inhibitor, partial curve, poor fit]"
Cc1ccccc1/C=N/Nc1nc2ccccc2c(=O)n1O,,active: 15.1 µM
COc1ccccc1CN=C1Nc2ccccc2CS1,,active: 23.9 µM
CCOc1ccc(N2C(=O)/C(=C/c3ccccc3)N=C2SC)cc1,inactive: -8.53%,
Cc1cccc(Cc2c(C)nc3c(-c4ccccc4)c(C)[nH]n3c2=O)c1,,"inconclusive: 5.36 µM [inhibitor, partial curve, poor fit]"
COc1cccc(/C=N/NC(=O)c2ccc(N3CCCC3=O)cc2)c1,,"inconclusive: 21.3 µM [inhibitor, partial curve]"
C(=C\c1ccc2ccccc2n1)/c1ccccc1,,active: 0.0757 µM
O=C(CCCc1ccccc1)NCCS(=O)(=O)N1CCN(c2ccccc2F)CC1,,"inconclusive: 37.9 µM [inhibitor, partial curve, poor fit]"
CCC(C)Nc1ncnc2c1cnn2-c1ccc(F)cc1 (stereo not given),,active: 6.75 µM
COc1ccc(-c2cc3c(=O)n(CC(=O)NCCCc4ccccc4)ncn3n2)cc1,,"inconclusive: 0.601 µM [inhibitor, full curve]"
CC1CCCN(S(=O)(=O)c2ccc3c(c2)CCN3C(=O)CCC(=O)O)C1 (stereo not given),inactive: 4.82%,
O=C(Nc1ccc2c(c1)OCCO2)c1cc(F)c(F)cc1Cl,,active: 12 µM
Cc1cc(N2C(=O)C(O)=C(C(=O)c3ccco3)C2c2ccccc2F)no1 (stereo not given),inactive: 7.52%,
O=C(NCC1CCCN(C(=O)c2cscn2)C1)c1ccccc1Cl (stereo not given),,"inconclusive: 37.9 µM [inhibitor, partial curve, poor fit]"
COc1ccc(NC(=O)c2csc(C)c2)cc1OC,,"inconclusive: 23.9 µM [inhibitor, partial curve]"
COCC1CCN(Cc2nc(-c3ccc4c(c3)OCO4)no2)C1 (stereo not given),,"inconclusive: 30.1 µM [inhibitor, single point]"
Cc1cccc(-c2cc(C(=O)N3CCCc4ccccc43)c3ccccc3n2)c1,,active: 12 µM
COc1ccc(NC(=O)CCCn2nc(C)c3sc4ccccc4c3c2=O)cc1,,"inconclusive: 37.9 µM [inhibitor, partial curve, poor fit]"
Cc1ccc(S(=O)(=O)N2CCOCC2)cc1C(=O)NCCN1C(=O)S/C(=C\c2ccccc2Cl)C1=O,,"inconclusive: 23.9 µM [inhibitor, single point]"
COc1ccc(C(=O)N/N=C/c2cn[nH]c2-c2ccc(OC)cc2OC)cc1,,"inconclusive: 10.7 µM [inhibitor, partial curve]"
COC(=O)C1CCCN1C(C(=O)NC1CCCCC1)c1ccc(Cl)cc1 (stereo not given),,"inconclusive: 21.3 µM [inhibitor, partial curve, poor fit]"

SMILES,"activity change, negative = inhibition",Potency
Fc1ccc(C2=CC(c3ccc(F)cc3)n3c(nc4ccccc43)N2)cc1 (stereo not given),,active: 10.7 µM
Cc1ccc(C(=O)Nc2cccc(S(=O)(=O)N(C)c3ccccc3)c2)o1,inactive: -17.3%,
CCN(C(=O)C1=COCCO1)c1nc2c(C)cccc2s1,,active: 15.1 µM
O=C(c1ccc(COc2ccccc2[N+](=O)[O-])o1)N1CCCCCC1,,"inconclusive: 21.3 µM [inhibitor, partial curve, poor fit]"
CCn1cc(Br)c(C(=O)Nc2cccc(Cl)c2)n1,,"inconclusive: 21.3 µM [inhibitor, partial curve]"
CCOC(=O)N1CCN(C(=O)CCN2C(=O)/C(=C\c3ccccc3OC)SC2=S)CC1,,"inconclusive: 26.9 µM [inhibitor, partial curve, poor fit]"
CCn1cc(C(=O)NCc2ccc(Cl)cc2)c(=O)c2cc(S(=O)(=O)N(C)C3CCCCC3)ccc21,inactive: -6.71%,
CCc1ccc(S(=O)(=O)Nc2ccc(-c3nc4cccnc4s3)cc2)s1,,"inconclusive: 15.1 µM [inhibitor, partial curve]"
Cc1ccccc1OCCCN1C(=O)C(=O)c2cccc(C)c21,,"inconclusive: 19 µM [inhibitor, partial curve]"
O=C(N/N=C/C1CCCCC1)c1cc(Cl)ccc1O,,active: 12 µM
CCOC(=O)C1=C(CN2CCN(c3cccc(Cl)c3)CC2)NC(=O)NC1c1ccc(Cl)cc1 (stereo not given),inactive: -8.36%,
CC(C)(C)c1ccc(OCc2nnc(-c3ccccc3)o2)cc1,,"inconclusive: 30.1 µM [inhibitor, partial curve, poor fit]"
Cc1sc(NC(=O)/C=C/c2ccco2)c(C(=O)OC(C)C)c1C,inactive: -0.0166%,
Cc1cccc(C)c1NC(=O)CN(C)c1ccc(C(F)(F)F)cn1,inactive: -0.149%,
COc1cc(OC)c(C2CC(=O)N3CN(c4ccccc4)CSC3=C2C#N)cc1OC (stereo not given),,"inconclusive: 26.9 µM [inhibitor, single point]"
Nc1c(C=C2C=CC(=O)C=C2)c(=O)nc2snc(SCc3ccccc3)n12,,"inconclusive: 23.9 µM [inhibitor, single point]"
CCN(c1ccccc1)S(=O)(=O)c1ccc(C(=O)Nc2nnc(C3CC3)o2)cc1,,"inconclusive: 37.9 µM [inhibitor, partial curve, poor fit]"
Cc1ccc(CSc2nnc3[nH]c(=O)cc(-c4ccccc4)n23)cc1,,"inconclusive: 6.75 µM [inhibitor, full curve]"
O=C(CSc1nnc(-c2ccc(F)cc2)o1)N1CCCc2ccccc21,,"inconclusive: 30.1 µM [inhibitor, partial curve, poor fit]"
O=C(/C=C/c1cccc(Cl)c1Cl)OCC(=O)N1CCOCC1,,"inconclusive: 37.9 µM [inhibitor, single point]"
Cc1ncc(CO)c(/C=N/NC(=O)c2cc3c(s2)CCCC3)c1O,,"inconclusive: 19 µM [inhibitor, partial curve]"
O=C(Nc1ccc2c(c1)OCO2)OCc1ccccc1,,active: 6.01 µM
